For this assay, the target named is B7H3 on B7H3-positive human tumor cells (M14, LAN-1, IMR-32, HeLa) (human), Q5ZPR3. Put plainly: cell-based or functional assay.

B1: hu8H9 H3L3 IgG1 (antibody)
heavy: QVQLVQSGAEVVKPGASVKLSCKASGYTFTNYDINWVRQRPEQGLEWIGWIFPGDGSTQYNEKFKGKATLTTDTSTSTAYMELSSLRSEDTAVYFCARQTTATWFAYWGQGTLVTVSS[sequence of human IgG1 constant region omitted]
light: EIVMTQSPATLSVSPGERVSLSCRASQSISDYLHWYQQKSHESPRLLIKYASQSISGIPARFSGSGSGSEFTLTINSVEPEDVGVYYCQNGHSFPLTFGQGTKLELKRTVAAPSVFIFPPSDEQLKSGTASVVCLLNNFYPREAKVQWKVDNALQSGNSQESVTEQDSKDSTYSLSSTLTLSKADYEKHKVYACEVTHQGLSSPVTKSFNRGEC
For the molecule B1, the ADCC EC50 (µg/ml), 51Cr release, LAN-1 targets, human PBMC effectors was 0.7 µg/mL and the Fold change EC50 relative to ch8H9 (ADCC) worked out at 2 fold.

The values above are taken from patent US20170240637A1.
